# Measured values reported in paper PMC4336329 (PLoS ONE, 2015).
# About 2,200 (0.71%) of roughly 310,000 compounds showed an effect of 50% or more. The effect is printed as a negative number. This is one part of the list.
# Molecular target: human ether-à-go-go-related gene (hERG) potassium channel (human, UniProt Q12809)
# Experiment: primary screen, population patch clamp on CHO cells stably expressing hERG
# Sequence of human ether-à-go-go-related gene (hERG) potassium channel (Q12809 whole entry, looked up): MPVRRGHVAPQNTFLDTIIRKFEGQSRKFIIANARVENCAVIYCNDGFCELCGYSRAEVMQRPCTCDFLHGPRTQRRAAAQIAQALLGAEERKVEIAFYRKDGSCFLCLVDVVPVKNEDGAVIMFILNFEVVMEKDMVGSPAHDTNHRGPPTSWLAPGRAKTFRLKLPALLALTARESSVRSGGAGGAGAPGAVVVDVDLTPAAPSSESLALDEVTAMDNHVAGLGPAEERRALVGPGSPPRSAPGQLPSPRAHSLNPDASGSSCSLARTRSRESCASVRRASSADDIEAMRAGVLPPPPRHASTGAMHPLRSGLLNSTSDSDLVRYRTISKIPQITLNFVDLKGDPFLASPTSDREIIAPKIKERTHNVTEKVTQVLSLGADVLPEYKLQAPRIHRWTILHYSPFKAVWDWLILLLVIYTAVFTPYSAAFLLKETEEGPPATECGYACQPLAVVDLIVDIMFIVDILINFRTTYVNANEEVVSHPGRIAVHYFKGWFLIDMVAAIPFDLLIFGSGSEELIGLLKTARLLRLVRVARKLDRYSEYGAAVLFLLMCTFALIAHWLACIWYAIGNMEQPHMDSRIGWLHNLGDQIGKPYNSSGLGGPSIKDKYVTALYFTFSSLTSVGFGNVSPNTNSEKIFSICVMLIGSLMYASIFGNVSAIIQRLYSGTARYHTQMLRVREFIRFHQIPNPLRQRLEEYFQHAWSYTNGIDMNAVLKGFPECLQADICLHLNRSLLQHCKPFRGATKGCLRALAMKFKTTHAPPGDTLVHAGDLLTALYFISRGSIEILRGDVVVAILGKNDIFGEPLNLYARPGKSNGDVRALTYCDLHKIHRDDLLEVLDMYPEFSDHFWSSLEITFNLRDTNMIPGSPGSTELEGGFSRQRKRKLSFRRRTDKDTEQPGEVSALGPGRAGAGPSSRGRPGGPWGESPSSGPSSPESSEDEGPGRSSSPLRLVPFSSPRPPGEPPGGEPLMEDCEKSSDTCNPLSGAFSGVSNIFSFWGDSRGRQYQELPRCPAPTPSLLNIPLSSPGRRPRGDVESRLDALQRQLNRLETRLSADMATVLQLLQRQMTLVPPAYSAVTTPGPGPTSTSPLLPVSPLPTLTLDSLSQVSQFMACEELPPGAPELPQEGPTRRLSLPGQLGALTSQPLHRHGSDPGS
row,SMILES,"hERG current change (%, negative = inhibition) at 1uM [%]"
1,CC1CCN(C(=O)COc2ccc(S(=O)(=O)N3CCCC3)cc2)CC1,15.2
2,Cc1cc2c(cc1S(=O)(=O)CCC(=O)N(C)C1CCCCC1)OCC(=O)N2,-4.23
3,CC(C)CC(=O)N1CCN(Cc2ccc3c(c2)OCO3)CC1,3.43
4,CCOc1ccc(N(CC)C(=O)c2nn(-c3ccc(OC)cc3)c(=O)c3c2c2ccccc2n3C)cc1,12.4
5,O=C(Oc1ccccc1/C=C\C(=O)c1cc2ccccc2o1)c1cccc(F)c1,4.26
6,OCC[C@H]1C[C@H](O)[C@@H](O)[C@]2(CCc3ccccc3CO2)O1,9.46
7,CCCCSc1nc(SCC(=O)NCc2ccco2)c2c3c(sc2n1)COC(C)(CC)C3 (centres unmarked),11.7
8,Cc1cc(NC(=O)c2ccc(F)cc2)n(CCOC(=O)c2ccc(F)cc2)n1,11.8
9,CCN(C(=O)CCc1nc(-c2ccc(OC)cc2)no1)c1cc(OC)ccc1OC,4.49
10,CCCCC(CC)CNCc1cccn1CCN1CCOCC1.O=C(O)C(=O)O (centres unmarked),8.84
11,CC(=O)Nc1ccc(NC(=O)CS(=O)(=O)c2cn(CC(=O)N3CCCCC3)c3ccccc23)cc1,9.93
12,CCN1C(=O)[C@H]2[C@@H](c3ccc(-c4ccccc4)cc3)N3CCCC[C@@]3(C(=O)OC)[C@H]2C1=O.O=C(O)C(F)(F)F,11.1
13,COCCNc1ncnc2nc[nH]c12,10.7
14,CCCN1CCC(NC(=O)CC2C(=O)NCCN2Cc2cccc(OC)c2)CC1 (centres unmarked),5.96
15,O=C(COc1ccccc1Cl)Nc1ccc2c(c1)C(=O)NC2=O,2.28
16,Cc1c(C(=O)NC(C)CCc2ccccc2)cccc1[N+](=O)[O-] (centres unmarked),0.978
17,CCOc1ccc(N/C=C/C(=O)c2ccc(OC)c(OC)c2)cc1,15.1
18,COc1ccccc1CN1CCC(n2nccc2NC(=O)CCc2ccccc2)CC1,7.89
19,CC1CC(NC(=O)Cc2ccc(Br)cc2)CC(C)(C)C1 (centres unmarked),12.7
20,Cc1ccc(-c2c[n+]3c(n2-c2ccccc2)CCC3)cc1.[Br-],1.57
21,Cc1sc(NC(=O)Cc2ccc3c(c2)OCO3)nc1-c1ccc2c(c1)CCN2C(=O)c1cccc(F)c1,4.7
22,COc1ccc(C(=O)NC(C(=O)NCC(=O)Nc2c(C)cccc2C)C(C)C)cc1 (centres unmarked),9.46

row,SMILES,"hERG current change (%, negative = inhibition) at 1uM [%]"
1,CCCCC(=O)NC(=S)Nc1ccc(Cl)c(C(=O)O)c1,13.4
2,Cn1cnnc1Sc1cc(N2CCN(S(=O)(=O)c3ccc(Cl)c(Cl)c3)CC2)ccc1[N+](=O)[O-],3.88
3,Cc1cc(=O)oc2ccc(OCc3ccccc3)cc12,6.69
4,CCOC(=O)C(NC(=O)c1ccccc1)(N1CCCC1=O)C(F)(F)F (centres unmarked),11
5,O=C(O)c1ccc(CSCc2ccccc2F)o1,3.34
6,CN(c1ccccc1)S(=O)(=O)c1cc(C(=O)Nc2nc3ccccc3[nH]2)ccc1Cl,10.4
7,O=C(N/N=C/c1cccs1)c1c[nH]c2ccccc12,12.9
8,CC(NC(=O)c1ccc(F)cc1F)C1CC2CCC1C2 (centres unmarked),6.95
9,Cc1[nH]ccc(=O)c1OCc1c(F)cccc1Cl,12.8
10,COC(=O)c1cc(=O)nc2sc3cc(OC)ccc3n12,8.89
11,c1ccc2oc(NC3=NCN(CC4CCCO4)CN3)nc2c1 (centres unmarked),7.11
12,C=CCc1cc(C=O)cc(OC)c1OCc1ccc(C(=O)O)cc1,2.2
13,O=C(COC(=O)c1ccc([N+](=O)[O-])cc1Cl)NCc1ccco1,10.1
14,COc1ccc(C(CC(=O)O)NC(=O)COc2ccccc2)cc1OC (centres unmarked),14
15,O=C(c1ccccc1[N+](=O)[O-])N(CCc1ccccc1)Cc1ccccc1,12.3
16,Cc1cc(Nc2ccc(Cl)cc2)n(-c2ccccc2)n1,5.52
17,COc1ccc(CNC(=O)CN(c2ccc(OC)c(Cl)c2)S(=O)(=O)c2ccc(C)cc2)cc1,15.9
18,Cn1cccc1C(=O)c1cccc([N+](=O)[O-])c1,-13.3
19,Cc1ncoc1C(=O)NCc1ccccc1Cl,-2.35
20,Cc1sc2nc(CN3CCOCC3)nc(NS(=O)(=O)c3cc(Cl)ccc3Cl)c2c1C,2.33
21,CCOC(=O)N1CCN(Cc2nc3cc(NC(=O)CC(C)C)ccc3n2C)CC1,13.4
22,CC(C)c1ccc(OCC(=O)NC2CCCC2)cc1,-1.14
